# Data taken from PubChem BioAssay AID2546 (National Center for Advancing Translational Sciences (NCATS), 2010).
# Out of some 310,000 compounds screened, about 11,000 (3.5%) were called active. The shares of active, inactive and inconclusive entries below differ from those in the screen. Calls follow the shape of the dose curve; as a rule, active = well fitted inhibition curve with a large enough effect; inconclusive = small, poorly fitted or top-dose-only effect, or effect the other way; inactive = flat fitted curve, though single readings scatter. Potencies of inconclusive entries are left out as doubtful fits.
# Test: VP16 counterscreen qHTS for inhibitors of ROR gamma transcriptional activity;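 also: Gal4-VP16 expression switched on by copper sulfate through the metallothionein promoter; nearly all actives have a fitted effect of over 50% in size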
# Settings: Drosophila S2 Gal4-VP16 UAS-luciferase, luminescence, 20 h; activity, negative = inhibition: at 53.6 µM (top of the series)
# % is scaled to controls: 0 for no effect and ±100 for the full control effect; potency is read from the fitted curve at half-maximal effect; tags tell the direction and shape of the fitted curve.
SMILES,Potency,"activity, negative = inhibition"
COc1cc([N+](=O)[O-])cc(CN2CCCCC2)c1O,inactive,–
CCCOC(=O)Nc1ccc(N2CCCCC2)cc1,"inconclusive [inhibitor, single point]",–
COc1cccc(/C=N/NC(=O)c2c(C)nc3ccc(Cl)cn23)c1O,active: 3.98 µM,–
Cc1n[nH]c(=O)[nH]c1=O,inactive,–
COc1cc(/C=C/[N+](=O)[O-])ccc1OC(=O)/C=C/c1ccc(F)cc1,"inconclusive [inhibitor, single point]",–
O=C(Nc1ccc2c(c1)OCO2)c1ccc(N2CCCC2)c([N+](=O)[O-])c1,"inconclusive [activator, single point]",–
O=C(NC(=S)N1CCOCC1)c1cc2ccccc2o1,active: 3.16 µM,–
Cc1cc(N/N=C/c2ccccc2[N+](=O)[O-])nc(-n2nc(C)cc2C)n1,active: 0.891 µM,–
Cc1ccc(C(=O)NC(=S)NCC2CCCO2)cc1Br (stereo not drawn),"inconclusive [inhibitor, single point]",–
COc1ccc(OCCCC(=O)Nc2ncn[nH]2)cc1,–,inactive: 0.961% [at 10 µM]
COc1ccc(CNc2nc3ccccc3n2Cc2ccccc2)cc1OC,"inconclusive [inhibitor, single point]",–
Cc1cccc(N2CCN(C(=S)Nc3ccc4nc(N5CCN(C)CC5)cc(C)c4c3)CC2C)c1 (stereo not drawn),"inconclusive [inhibitor, single point]",–
CCn1c(NC(C)=O)c(-c2ccccc2Cl)c(=O)c2ccccc21,inactive,–
Cc1ccccc1CSCCNC(=O)c1ccccc1,inactive,–
C(=N\Nc1nc(N2CCCCCC2)nc(N2CCCCCC2)n1)/c1ccccc1,"inconclusive [inhibitor, single point]",–
Cc1ccc(-c2csc3ncnc(SCc4ccc(C(=O)O)cc4)c23)cc1,active: 4.47 µM,–
FC(F)(F)c1cccc(-c2nc3nc(Cl)c(Cl)nc3[nH]2)c1,active: 5.62 µM,–
O=C(N/N=C/c1cn(-c2ccccc2)nc1-c1ccc(F)cc1)c1ccc(Br)o1,active: 2.51 µM,–
COc1ccc(NC(=O)c2nc[nH]c2C(=O)Nc2ccccc2C)cc1,active: 8.91 µM,–
O=C(N/N=C/c1ccc2c(c1)OCO2)C(=O)N1CCCC1,"inconclusive [activator, full curve, poor fit]",–
O=C(Nc1ccccc1N1CCN(C(=O)c2ccccc2)CC1)c1ccc([N+](=O)[O-])o1,"inconclusive [inhibitor, single point]",–
COc1ccc(Cc2noc(CN3CCC(c4ccncc4)CC3)n2)cc1OC,"inconclusive [inhibitor, single point]",–
CCc1nc2ccccc2n1Cc1ccc(OC)c(OC)c1,inactive,–
N/C(Cc1ccc(Cl)cc1)=N\OC(=O)C1CCCCC1,"inconclusive [inhibitor, single point]",–

SMILES,Potency,"activity, negative = inhibition"
Cc1c(Cl)cccc1NC(=O)CSc1nc2ncc(Cl)cc2[nH]1,"inconclusive [inhibitor, single point]",–
CC(C)N(C(=O)c1ccc2nc(-c3ccccc3)c(-c3ccccc3)nc2c1)C(C)C,"inconclusive [inhibitor, single point]",–
O=C(CN1C(=O)COc2ccccc21)Nc1ccc(N2CCOCC2)cc1,inactive,–
O=C(c1ccc(N2CCN(C(=O)c3ccccc3)CC2)cc1)c1cccc(F)c1,"inconclusive [inhibitor, single point]",–
COc1ccc(OC)c(Nc2nc(N)nc(-c3cc4ccccc4o3)n2)c1,"inconclusive [inhibitor, single point]",–
NC(=O)c1ccc(NC(=O)CN2CCN(c3ccccc3)CC2)cc1,inactive,–
CC1CCN(S(=O)(=O)c2ccc3c(c2)oc(=O)n3CC(=O)NCc2ccc3c(c2)OCO3)CC1,"inconclusive [inhibitor, single point]",–
Cc1ccc(S(=O)(=O)Nc2ccccc2/C=N/c2nc3ccccc3n2C)cc1,inactive,–
O=C(NC(=S)Nc1ccc2c(c1)OCCO2)c1ccc(F)cc1Cl,"inconclusive [activator, single point]",–
COc1ccc(CNC(=O)C(=O)NCC2OCCN2S(=O)(=O)c2ccc3c(c2)OCCO3)cc1 (stereo not drawn),inactive,–
CCOC(=O)Cc1csc(NC(=O)c2ccc3ccccc3n2)n1,"inconclusive [inhibitor, single point]",–
CC(C)(C)C(=O)NC(n1cnc2c(N3CCOCC3)ncnc21)C(Cl)(Cl)Cl (stereo not drawn),"inconclusive [inhibitor, single point]",–
CCCn1c(=S)[nH]c2sc3c(c2c1=O)CCCC3,active: 0.891 µM,–
CSCCC(NC(=O)c1ccc(Cl)cc1)C(=O)OCC(=O)Nc1cc(Cl)ccc1C#N (stereo not drawn),"inconclusive [inhibitor, partial curve]",–
Cc1cccc(N2C(N)=C(C#N)C(C#N)(C#N)C2c2ccccc2)c1 (stereo not drawn),inactive,–
O=C(Nc1nccs1)c1cc(-c2ccccc2)nn1-c1ccccc1,"inconclusive [inhibitor, partial curve]",–
Cc1ccc(C=Nc2ccccc2C(N)=O)s1,"inconclusive [activator, single point]",–
CC(=O)Nc1cccc(C(=O)/C=C/c2ccc(C)cc2)c1,"inconclusive [inhibitor, single point]",–
O=C(C1CC(=O)N(C2CCCC2)C1)N1CCC(Cc2ccccc2)CC1 (stereo not drawn),"inconclusive [inhibitor, single point]",–
Cc1ccc(Sc2c(C)nn(C(=O)C3CC3)c2C)cc1,"inconclusive [inhibitor, single point]",–
CN1CCc2c(sc(NC(=O)Cc3ccccc3)c2C#N)C1,inactive,–
CSc1n[nH]c(NCc2cccs2)n1,inactive,–
CCCOc1ccccc1-c1nc2c([nH]1)c(=O)[nH]c(=O)n2C,inactive,–
Cc1ccccc1NC1=C(Cl)C(=O)N(C2CCCCC2)C1=O,"inconclusive [inhibitor, single point]",–
